The results in this text go back to PMC4336329 (PLoS ONE, 2015).

Molecules are shown by their SMILES. The campaign covered roughly 310,000 compounds. About 14,000 (4.5%) showed an effect of 50% or more. Effects have a minus sign here. This is one part of the list.
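Further: peak tail current of the secondary pulse compared with the same well before compound.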

The experiment deals with human ether-à-go-go-related gene (hERG) potassium channel (human, UniProt Q12809). The experiment can be described thus: primary screen, population patch clamp on CHO cells stably expressing hERG.
Chain of human ether-à-go-go-related gene (hERG) potassium channel (Q12809 whole entry, looked up): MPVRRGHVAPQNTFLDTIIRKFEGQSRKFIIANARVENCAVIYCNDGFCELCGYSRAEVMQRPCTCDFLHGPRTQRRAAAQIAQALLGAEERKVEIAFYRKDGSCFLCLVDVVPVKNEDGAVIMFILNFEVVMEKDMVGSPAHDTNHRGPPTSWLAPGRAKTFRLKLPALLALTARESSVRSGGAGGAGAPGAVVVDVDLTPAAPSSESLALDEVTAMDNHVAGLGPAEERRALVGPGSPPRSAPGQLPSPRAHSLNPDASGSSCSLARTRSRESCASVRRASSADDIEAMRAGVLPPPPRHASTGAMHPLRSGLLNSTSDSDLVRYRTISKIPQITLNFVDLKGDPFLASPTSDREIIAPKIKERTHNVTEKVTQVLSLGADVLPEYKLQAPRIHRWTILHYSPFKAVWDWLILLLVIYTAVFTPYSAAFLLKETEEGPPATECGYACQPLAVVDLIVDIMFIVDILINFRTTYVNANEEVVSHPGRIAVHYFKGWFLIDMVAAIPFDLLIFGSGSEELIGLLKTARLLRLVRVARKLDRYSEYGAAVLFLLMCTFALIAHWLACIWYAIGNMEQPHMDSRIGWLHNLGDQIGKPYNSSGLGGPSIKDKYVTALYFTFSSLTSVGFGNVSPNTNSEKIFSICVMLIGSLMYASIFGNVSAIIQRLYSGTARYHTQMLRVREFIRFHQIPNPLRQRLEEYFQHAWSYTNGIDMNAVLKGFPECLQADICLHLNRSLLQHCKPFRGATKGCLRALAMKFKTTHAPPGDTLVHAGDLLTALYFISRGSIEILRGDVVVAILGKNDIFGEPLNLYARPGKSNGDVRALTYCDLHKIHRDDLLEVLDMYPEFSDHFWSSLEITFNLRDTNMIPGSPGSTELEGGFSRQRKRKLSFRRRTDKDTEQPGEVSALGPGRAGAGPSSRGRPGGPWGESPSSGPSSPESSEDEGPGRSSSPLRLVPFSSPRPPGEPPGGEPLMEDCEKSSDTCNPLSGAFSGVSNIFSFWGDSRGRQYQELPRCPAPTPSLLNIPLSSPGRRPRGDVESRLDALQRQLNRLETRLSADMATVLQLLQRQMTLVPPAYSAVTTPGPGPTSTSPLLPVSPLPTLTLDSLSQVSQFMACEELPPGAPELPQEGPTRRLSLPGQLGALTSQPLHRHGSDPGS
Take `CCc1[nH]nc(C(=O)N2CCCC(C(=O)c3cccc(OC(C)C)c3)C2)c1C` (centres unmarked): the “hERG current change (%, negative = inhibition) at 10uM” value came to 0.863%.

Turning to `COc1ccc(NC(=O)c2cc(-c3ccc(C)o3)nc3ccccc23)c(OC)c1`, the “hERG current change (%, negative = inhibition) at 10uM” value is 14.9%.

As to `Cn1c(NC(=O)c2cccs2)cc(=O)n(C)c1=O`, the “hERG current change (%, negative = inhibition) at 10uM” value turned out to be 0.34%.

On to `O=C(Cn1cc(C(F)(F)F)cc(Cl)c1=O)NCc1ccc(F)cc1`, for which the “hERG current change (%, negative = inhibition) at 10uM” value is recorded as 11.2%.

`CCC1(c2ccc(F)cc2)NC(=O)N(CC(=O)N(C)C2CCS(=O)(=O)C2)C1=O` (centres unmarked): the “hERG current change (%, negative = inhibition) at 10uM” value stood at 1.62%.

For the molecule `CC1CCC(NC(=O)C2CCC(CNS(=O)(=O)c3cccc4cccnc34)CC2)CC1` (centres unmarked), the “hERG current change (%, negative = inhibition) at 10uM” value is listed as 19.1%.

For the molecule `COc1ccccc1CNS(=O)(=O)N(C)C`, the “hERG current change (%, negative = inhibition) at 10uM” value was 10.5%.

For the molecule `Cn1c(NCCO)nc2c1c(=O)n(Cc1cccc(Cl)c1)c(=O)n2C`, the “hERG current change (%, negative = inhibition) at 10uM” value worked out at 10.8%.

For `Cc1ccccc1C(=O)NC(CC(C)C)C(=O)OCc1cc(=O)n2cc(Br)ccc2n1` (centres unmarked), the “hERG current change (%, negative = inhibition) at 10uM” value is -27.2%.

For the molecule `Cn1c(=O)c2c(ncn2CCN(CCO)Cc2ccccc2)n(C)c1=O`, the “hERG current change (%, negative = inhibition) at 10uM” value is -2.06%.

On to `CC(C)OC(=O)C1C(=O)CC(C)(O)C(C(=O)OC(C)C)C1c1ccccc1` (centres unmarked), for which the “hERG current change (%, negative = inhibition) at 10uM” value was found to be 4.6%.

With `COc1ccc(Cl)cc1NC(=O)Nc1ccc(Br)cn1`, the “hERG current change (%, negative = inhibition) at 10uM” value is recorded as 2.48%.

On to `O=C(Oc1ccc2c(=O)c(Oc3ccc4ccccc4c3)coc2c1)c1cccnc1`, for which the “hERG current change (%, negative = inhibition) at 10uM” value is recorded as -5.08%.

Consider `NP(=O)(OCCCc1ccccc1)Oc1ccc(Cl)cc1` (centres unmarked), for which the “hERG current change (%, negative = inhibition) at 10uM” value is given as -11.1%.

Regarding `CCN(CC)S(=O)(=O)c1ccc(Oc2ccccc2)c(N)c1`, the “hERG current change (%, negative = inhibition) at 10uM” value was -36.9%.

As to `O=C(CC1S/C(=N/N=C/c2cccnc2)NC1=O)Nc1ccccc1` (centres unmarked), the “hERG current change (%, negative = inhibition) at 10uM” value amounted to 8.31%.

As to `Cn1c(NCC(O)c2ccccc2)nc2c1c(=O)n(Cc1ccc(Cl)cc1)c(=O)n2C` (centres unmarked), the “hERG current change (%, negative = inhibition) at 10uM” value is recorded as -10.7%.

Regarding `CCOc1ccc2nc(NC(=O)C3(C)CC3(Br)Br)sc2c1` (centres unmarked), the “hERG current change (%, negative = inhibition) at 10uM” value is recorded as 0.3%.

As for `CCn1c(COc2ccccc2)nnc1SCc1ccc(C#N)cc1`, the “hERG current change (%, negative = inhibition) at 10uM” value was -54.1%.

Take `Cc1nc2ccc(S(=O)(=O)N(C)CC(=O)N3CCc4ccccc43)cc2s1`: the “hERG current change (%, negative = inhibition) at 10uM” value is -42.5%.

Regarding `COc1ccc(NC(=O)c2cc(-c3ccccc3)oc2C)cc1`, the “hERG current change (%, negative = inhibition) at 10uM” value was determined as 2.65%.

Turning to `CC(NS(=O)(=O)c1ccc(F)cc1)C(c1cccs1)N1CCN(C)CC1` (centres unmarked), the “hERG current change (%, negative = inhibition) at 10uM” value is on record as 0.48%.

As for `CC1CCCCN1CCCNC(=O)CCCN1C(=O)c2cccnc2Sc2ccccc21` (centres unmarked), the “hERG current change (%, negative = inhibition) at 10uM” value turned out to be 13.9%.

Turning to `COc1cc(-c2nc(S(=O)(=O)c3ccc(C)cc3)c(N(C)C)o2)cc(OC)c1OC`, the “hERG current change (%, negative = inhibition) at 10uM” value was -9.21%.

Take `CN1CCN(C(=O)c2c(O)c3cccc4c3n(c2=O)CCC4)CC1.Cl`: the “hERG current change (%, negative = inhibition) at 10uM” value was 6.48%.

`O=C(O)CCn1c(O)c(C=C2N=c3ccccc3=N2)sc1=S`: the “hERG current change (%, negative = inhibition) at 10uM” value turned out to be 14.6%.

As to `CC1Sc2ccc(S(=O)(=O)N3CCC(C(=O)NCCc4ccccc4)CC3)cc2NC1=O` (centres unmarked), the “hERG current change (%, negative = inhibition) at 10uM” value is -16.5%.

`COc1cc2c(cc1OC)C(c1ccccc1)N(C(=O)c1ccccc1F)CC2` (centres unmarked): the “hERG current change (%, negative = inhibition) at 10uM” value is on record as -25.9%.

In the case of `Cc1c(CC(Cl)(Cl)Cl)c2c(n1O)CC(C)(C)CC2=O`, the “hERG current change (%, negative = inhibition) at 10uM” value was found to be 14.9%.

In the case of `Cc1cc(C)n2nc(SCC(=O)Nc3c(C)nn(-c4ccccc4)c3C)nc2n1`, the “hERG current change (%, negative = inhibition) at 10uM” value is 4.43%.

As to `Cc1c(-c2nc(-c3ccncc3)no2)cccc1[N+](=O)[O-]`, the “hERG current change (%, negative = inhibition) at 10uM” value is listed as 15.4%.

Turning to `CC(CN1CCOCC1)OC(=O)c1ccc2c(c1)OCCO2.Cl` (centres unmarked), the “hERG current change (%, negative = inhibition) at 10uM” value turned out to be 0.732%.

In the case of `O=C(NCCCn1ccnc1)c1c(F)cccc1F`, the “hERG current change (%, negative = inhibition) at 10uM” value amounted to 15.4%.

For the molecule `Cc1cccc(N(Cc2ccccc2)C(=O)c2cc(S(=O)(=O)N3CCOCC3)ccc2F)c1`, the “hERG current change (%, negative = inhibition) at 10uM” value is -5.69%.

As for `CS(=O)(=O)N1CCN(C(=O)C(Sc2ccccc2)c2ccccc2)CC1` (centres unmarked), the “hERG current change (%, negative = inhibition) at 10uM” value was -20%.

In the case of `COc1ccc(N2CC(O)=C(c3nc4ccccc4s3)C2=N)cc1`, the “hERG current change (%, negative = inhibition) at 10uM” value was 2.56%.

`CC1(C)CC(=O)c2c(O)cc(OCc3ccc(Br)cc3)cc2O1`: the “hERG current change (%, negative = inhibition) at 10uM” value is 15.7%.

On to `Cc1ccc(NC(=O)CCNS(=O)(=O)c2ccc3[nH]c(=O)oc3c2)c(Cl)c1`, for which the “hERG current change (%, negative = inhibition) at 10uM” value turned out to be 4.51%.

For `COc1cccc(NC(=O)C2C3CC4OC(=O)C2C4C3)c1` (centres unmarked), the “hERG current change (%, negative = inhibition) at 10uM” value worked out at 20.4%.

For `C=CCNC(=O)c1c(CS(=O)(=O)c2ccccc2)noc1C(=O)NCc1ccccc1`, the “hERG current change (%, negative = inhibition) at 10uM” value is reported as -2.89%.

Regarding `O=C(CSc1nc(=O)n2ccccc2n1)Nc1ccc2c(c1)OCO2`, the “hERG current change (%, negative = inhibition) at 10uM” value is -8.33%.

For the molecule `COC(=O)c1ccccc1NC(=O)CSc1nnc(-c2ccoc2C)n1C`, the “hERG current change (%, negative = inhibition) at 10uM” value is -27.5%.

Consider `COc1ccc(/C=C(\C)c2nc(C)c(-c3ccccc3)c(=O)[nH]2)cc1`, for which the “hERG current change (%, negative = inhibition) at 10uM” value amounted to 21.7%.

`COc1ccc(Cl)cc1C(=O)Nc1ccccc1N1CCN(C)CC1`: the “hERG current change (%, negative = inhibition) at 10uM” value is on record as -79.3%.
